From paper PMC7915732 (2021)
Bridge positions count the residues as written; N and C are the ends. Ends that are not written are not given here.

Assays:
[1] = biological target: T1, PTCH peptide (Homo sapiens, not fully specified); assay: resin adsorption isotherm
T1 chain: RYSPPPPYSSHS

[2] = biological target: T2, cyclo[E-LYLAYPAH-K] (synthetic construct, lactam 1-10); assay: resin adsorption isotherm
T2 chain: ELYLAYPAHK

[3] = biological target: T3, QVQCRGKGEQK linear peptide (synthetic construct); assay: yeast surface titration
T3 chain: QVQCRGKGEQK

[4] = biological target: T4, cyclo[E-VQCRGKGEQ-K] (synthetic construct, lactam 1-11); assay: yeast surface titration
T4 chain: EVQCRGKGEQK

[5] = biological target: T5, QLYLAYPAHK linear peptide (synthetic construct); assay: yeast surface titration
T5 chain: QLYLAYPAHK

[6] = biological target: T6, cyclo[E-LYLAYPAH-K] (synthetic construct, lactam 1-10); assay: yeast surface titration
T6 chain: ELYLAYPAHK

B1: N-terminal YAP […] (protein)
chain: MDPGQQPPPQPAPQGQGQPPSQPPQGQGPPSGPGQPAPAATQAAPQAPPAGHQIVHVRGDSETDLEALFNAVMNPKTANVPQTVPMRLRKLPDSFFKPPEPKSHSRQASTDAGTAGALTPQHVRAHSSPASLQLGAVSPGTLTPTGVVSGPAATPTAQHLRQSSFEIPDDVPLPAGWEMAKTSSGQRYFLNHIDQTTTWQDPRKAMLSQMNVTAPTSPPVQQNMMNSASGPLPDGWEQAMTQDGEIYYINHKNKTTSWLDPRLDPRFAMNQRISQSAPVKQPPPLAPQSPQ
Kd [1]: 200 nM | Kd [2]: 340 nM | Kd [3]: 360 nM | Kd [4]: 460 nM | Kd [5]: 740 nM | Kd [6]: 1750 nM
